Numbering of substitutions follows the chain as printed; changes in the protein carry UniProt numbers. Some of the results follow.

The results in this text go back to PMC9911399, “Two distinct binding modes provide the RNA-binding protein RbFox with extraordinary sequence specificity”.

B1: AACCAUU (DNA:RNA)
RNA: GGGAGACCGGAAUUCAGAUUGUCCAACCAUUUUAAAUCCCGUCGUAGCCACCA
DNA 1: CAATCTGAATTCCGGTCTCCC
DNA 2: TGGTGGCTACGACGGGATT
B2: CCAGUUC (DNA:RNA)
RNA: B1 RNA with A25C, A26C, C27A, C28G, A29U, U31C
DNA 1: CAATCTGAATTCCGGTCTCCC
DNA 2: TGGTGGCTACGACGGGATT
B3: UCAGGGG (DNA:RNA)
RNA: GGGAGACCGGAAUUCAGAUUGUCCUCAGGGGUUAAAUCCCGUCGUAGCCACCA
DNA 1: CAATCTGAATTCCGGTCTCCC
DNA 2: TGGTGGCTACGACGGGATT
B4: AAUAACC (DNA:RNA)
RNA: B1 RNA with C27U, C28A, U30C, U31C
DNA 1: CAATCTGAATTCCGGTCTCCC
DNA 2: TGGTGGCTACGACGGGATT
B5: AUAGAAU (DNA:RNA)
RNA: B1 RNA with A26U, C27A, C28G, U30A
DNA 1: CAATCTGAATTCCGGTCTCCC
DNA 2: TGGTGGCTACGACGGGATT
B6: GAGUGGA (DNA:RNA)
RNA: B3 RNA with U25G, C26A, A27G, G28U, G31A
DNA 1: CAATCTGAATTCCGGTCTCCC
DNA 2: TGGTGGCTACGACGGGATT
B7: AUGUGCC (DNA:RNA)
RNA: B1 RNA with A26U, C27G, C28U, A29G, U30C, U31C
DNA 1: CAATCTGAATTCCGGTCTCCC
DNA 2: TGGTGGCTACGACGGGATT
B8: CGGAGCU (DNA:RNA)
RNA: B1 RNA with A25C, A26G, C27G, C28A, A29G, U30C
DNA 1: CAATCTGAATTCCGGTCTCCC
DNA 2: TGGTGGCTACGACGGGATT
B9: GCUGCGU (DNA:RNA)
RNA: B3 RNA with U25G, A27U, G29C, G31U
DNA 1: CAATCTGAATTCCGGTCTCCC
DNA 2: TGGTGGCTACGACGGGATT
B10: GAAAGCC (DNA:RNA)
RNA: B3 RNA with U25G, C26A, G28A, G30C, G31C
DNA 1: CAATCTGAATTCCGGTCTCCC
DNA 2: TGGTGGCTACGACGGGATT
B11: UCGAGUU (DNA:RNA)
RNA: B3 RNA with A27G, G28A, G30U, G31U
DNA 1: CAATCTGAATTCCGGTCTCCC
DNA 2: TGGTGGCTACGACGGGATT
B12: CUUCAGU (DNA:RNA)
RNA: B1 RNA with A25C, A26U, C27U, U30G
DNA 1: CAATCTGAATTCCGGTCTCCC
DNA 2: TGGTGGCTACGACGGGATT
B13: ACAAUAC (DNA:RNA)
RNA: B3 RNA with U25A, G28A, G29U, G30A, G31C
DNA 1: CAATCTGAATTCCGGTCTCCC
DNA 2: TGGTGGCTACGACGGGATT
B14: CGCCUAC (DNA:RNA)
RNA: B1 RNA with A25C, A26G, A29U, U30A, U31C
DNA 1: CAATCTGAATTCCGGTCTCCC
DNA 2: TGGTGGCTACGACGGGATT
B15: GUCGUGC (DNA:RNA)
RNA: B3 RNA with U25G, C26U, A27C, G29U, G31C
DNA 1: CAATCTGAATTCCGGTCTCCC
DNA 2: TGGTGGCTACGACGGGATT
B16: CGAUACG (DNA:RNA)
RNA: B3 RNA with U25C, C26G, G28U, G29A, G30C
DNA 1: CAATCTGAATTCCGGTCTCCC
DNA 2: TGGTGGCTACGACGGGATT
B17: GGCUCGC (DNA:RNA)
RNA: B1 RNA with A25G, A26G, C28U, A29C, U30G, U31C
DNA 1: CAATCTGAATTCCGGTCTCCC
DNA 2: TGGTGGCTACGACGGGATT
B18: UGGAUUC (DNA:RNA)
RNA: B1 RNA with A25U, A26G, C27G, C28A, A29U, U31C
DNA 1: CAATCTGAATTCCGGTCTCCC
DNA 2: TGGTGGCTACGACGGGATT
B19: UAACUGC (DNA:RNA)
RNA: B3 RNA with C26A, G28C, G29U, G31C
DNA 1: CAATCTGAATTCCGGTCTCCC
DNA 2: TGGTGGCTACGACGGGATT
B20: UAAAUAC (DNA:RNA)
RNA: B3 RNA with C26A, G28A, G29U, G30A, G31C
DNA 1: CAATCTGAATTCCGGTCTCCC
DNA 2: TGGTGGCTACGACGGGATT

In this experiment the target is T1, RBFOX1 RRM (Homo sapiens, UniProt Q9NWB1 109-208).
T1 sequence: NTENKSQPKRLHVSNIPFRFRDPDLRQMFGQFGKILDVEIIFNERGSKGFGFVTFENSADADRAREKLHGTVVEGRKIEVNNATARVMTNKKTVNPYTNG
The experiment in a line: EMSA; HiTS-Eq, 1 nM pool, 10 min; buffer printed only for the single-RNA assays: 10 mM Tris pH 7.5, 150 mM NaCl, 3.4 mM EDTA, 0.001% NP-40, 30 C. As to conditions: tags: His6 N-terminal (pET28a); label: 5' 32P. A digest of the protocol:
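Relative association constants, normalised to the cognate motif, were derived by comparing read counts of each RNA species with those of the control reaction. The RNA sequenced was the free fraction, separated by 8% native PAGE after a 10 min equilibration in 50 µL of 1 nM 5′-radiolabelled RNA (7 randomized nucleotides) with increasing concentrations of purified wild-type or mutant RbFox RRM.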
In the case of B1, the binding signal is 0.00138 KA relative to UGCAUGU.
Under B2 stands 0.0137 KA relative to UGCAUGU; under B3, 0.00686 KA relative to UGCAUGU; under B4, 0.00049 KA relative to UGCAUGU.
Under B5 stands 0.00326 KA relative to UGCAUGU; under B6, 0.00781 KA relative to UGCAUGU.
As for B7, the binding signal was 0.0173 KA relative to UGCAUGU.
Take B8: the binding signal is 0.0245 KA relative to UGCAUGU.
Under B9 stands 0.0224 KA relative to UGCAUGU; under B10, 0.00698 KA relative to UGCAUGU.
As to B11, the binding signal was 0.00811 KA relative to UGCAUGU.
Turning to B12, the binding signal was 0.0048 KA relative to UGCAUGU.
Regarding B13, the binding signal was 0.000248 KA relative to UGCAUGU.
Under B14 stands 0.00556 KA relative to UGCAUGU; under B15, 0.0206 KA relative to UGCAUGU.
Take B16: the binding signal was 0.00904 KA relative to UGCAUGU.
Consider B17, for which the binding signal is 0.0155 KA relative to UGCAUGU.
Under B18 stands 0.0192 KA relative to UGCAUGU.
Under B19 stands 0.017 KA relative to UGCAUGU; under B20, 0.00799 KA relative to UGCAUGU.
